About 200 (0.44%) of roughly 45,000 compounds were called active. Inconclusive results (about 7%) are left out. The call rests on the fitted dose curve; in most records, active means well fitted activation curve with a large enough effect; inconclusive means small, poorly fitted or top-dose-only effect; inactive means no such curve, though single readings can be large or run the other way. The list shows a part of the results.
Assay: qHTS of TDP-43 Inhibitors: NCGC Sytravon Library Screen; further: nearly all actives have a fitted effect of over 55% in size; on growth rescue (activation): 0% is about no effect
Conditions: yeast TDP-43 toxicity rescue, BacTiter-Glo growth, 24 h; series mostly up to 46.1 µM; growth rescue (activation): at the top concentration
Outline: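 TDP-43-expressing yeast, pregrown in raffinose, seeded at OD600 0.02 in galactose medium with compound for 24 hr at 30 deg C. Growth read by BacTiter-Glo luminescence, so rescue of toxicity appears as activation.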
For `CCc1ccc(N(CC(=O)NC(C)C)C(=O)CCC(=O)Nc2nccs2)cc1`, the “growth rescue (activation)” value was inactive: -1.14%.
With `Cc1ccc(NC(=S)NCCc2ccc(S(N)(=O)=O)cc2)cc1C` the “growth rescue (activation)” value was inactive: 28.8%.
In the case of `O=C(Nc1cccnc1)C1CCC(CNS(=O)(=O)c2cccc3nsnc23)CC1` (configuration not stated), the “growth rescue (activation)” value is reported as inactive: 17.7%.
For `CC(C)NC(=O)CN1CCN(C(=O)c2ccc3oc(CCCc4ccccc4)nc3c2)CC1`, the “growth rescue (activation)” value was inactive: 10.5%.
In the case of `CCC(C(=O)N1CCN(c2ccccc2OC)CC1)c1ccccc1` (configuration not stated), the “growth rescue (activation)” value is reported as inactive: 14.5%.
With `CNS(=O)(=O)c1cccc(C(=O)NNC(=O)c2ccc(COc3ccccc3)cc2)c1` the “growth rescue (activation)” value was inactive: 10.3%.
For `CN(CC(=O)Nc1ccc(F)cc1)C(=O)CN1C(=O)NC2(CCCC2)C1=O`, the “growth rescue (activation)” value was inactive: -26.2%.
For `COc1ccc(C2(C)NC(=O)N(CC(=O)N(c3ccccc3)C3CCS(=O)(=O)C3)C2=O)cc1` (configuration not stated), the “growth rescue (activation)” value was inactive: 0.945%.
For `O=C(CSc1cccc[n+]1[O-])Nc1cc2c(cc1Cl)C(=O)c1ccccc1C2=O`, the “growth rescue (activation)” value was inactive: 19.7%.
With `CCCc1cc(=O)[nH]c(SCC(=O)Nc2c(C)n(C)n(-c3ccccc3)c2=O)n1` the “growth rescue (activation)” value was inactive: -0.324%.
With `O=C(NC1CC1)C1CCN(C(=O)c2ccc(Cl)cc2)CC1` the “growth rescue (activation)” value was inactive: 11.7%.
For `O=C(CNC(=O)c1ccco1)NCC(=O)OCc1ccccc1Cl`, the “growth rescue (activation)” value was inactive: 18.3%.
With `O=C(Nc1ccc(Cl)cn1)c1ccc(COc2ccccc2Br)o1` the Potency was active: 11.2 µM.
For `Cc1cc(NC2CCCC2)n2nc(C)c(-c3ccccc3)c2n1`, the “growth rescue (activation)” value was inactive: 6.75%.
For `Nc1c(NCCN2CCOCC2)c2ccccc2oc1=O`, the “growth rescue (activation)” value was inactive: 3.19%.
In the case of `O=C(CNc1cccc2ccccc12)N/N=C/c1ccc[nH]1`, the “growth rescue (activation)” value is reported as inactive: 8.68%.
In the case of `CCS(=O)(=O)c1ncc(Cl)c(C(=O)Nc2ccc(S(=O)(=O)N3CCCC(C)C3)cc2)n1` (configuration not stated), the “growth rescue (activation)” value is reported as inactive: 3.6%.
For `O=C(COC(=O)[C@H](Cc1ccccc1)NC(=O)c1cccs1)NC1CC1`, the “growth rescue (activation)” value was inactive: -0.92%.
With `Cc1ccc(-c2c(C)n([O-])c3c([n+]2=O)CCCCC3)cc1` the “growth rescue (activation)” value was inactive: 17.5%.
With `COc1ccccc1NC(=O)CSc1nnnn1C1CCCC1` the “growth rescue (activation)” value was inactive: 0.953%.
For `COC(=O)c1ccc(/C=N/N2CCN(Cc3ccccc3Cl)CC2)cc1`, the “growth rescue (activation)” value was inactive: 4.01%.
In the case of `COc1ccc(OCC(=O)N(Cc2ccco2)C2CCS(=O)(=O)C2)cc1` (configuration not stated), the “growth rescue (activation)” value is reported as inactive: -16%.
For `COc1ccc(N2CCN(C(=O)CNC(=O)c3ccco3)CC2)cc1`, the “growth rescue (activation)” value was inactive: 13.7%.
In the case of `Cc1cccc(CNC(=O)Nc2nnc([C@H]3C[C@H](O)[C@@H](CO)O3)s2)c1`, the “growth rescue (activation)” value is reported as inactive: -0.46%.
In the case of `Cc1ccsc1/C=N/NC(=O)c1cccnc1`, the “growth rescue (activation)” value is reported as inactive: -15.3%.
With `Cc1ccccc1C(=O)NC(CC(C)C)C(=O)OCc1cc(=O)n2cc(Br)ccc2n1` (configuration not stated) the “growth rescue (activation)” value was inactive: 15%.
With `CCC(C)(C)NC(=O)CN(C(=O)CCC(=O)Nc1ccccn1)c1ccc2c(c1)OCO2` the “growth rescue (activation)” value was inactive: -6.93%.
In the case of `COc1cccc(CN2CCN(C3CCOCC3)CC2CCO)c1` (configuration not stated), the “growth rescue (activation)” value is reported as inactive: -18.4%.
In the case of `CC(C)NC(=O)CN(c1cccc([N+](=O)[O-])c1)S(=O)(=O)c1ccccc1`, the “growth rescue (activation)” value is reported as inactive: 7.78%.
For `Cc1cc(C)nc(N=Nc2c(O)n(Cc3ccc(Cl)cc3)c3ccccc23)n1`, the “growth rescue (activation)” value was inactive: 18.1%.
For `CCNc1nc(NCC)n2c(SCC(=O)Nc3ccc(C)cc3Br)nnc2n1`, the “growth rescue (activation)” value was inactive: 9.8%.
With `CCN(CC)S(=O)(=O)c1ccc(N2CCN(C)CC2)c(NC(=O)Nc2ccc(C)cc2)c1` the “growth rescue (activation)” value was inactive: 11.3%.
For `Cc1ccccc1NC(=O)c1ccc2nccnc2c1`, the “growth rescue (activation)” value was inactive: 14.6%.
With `COc1ccc(OC)c(-c2csc(NC(=O)C3COc4ccccc4O3)n2)c1` (configuration not stated) the “growth rescue (activation)” value was inactive: 31.3%.
For `O=C(CN1CCN(S(=O)(=O)c2ccc(F)cc2)CC1)NCC1(N2CCOCC2)CCCCC1`, the “growth rescue (activation)” value was inactive: 18.2%.
For `COc1ccccc1C(=O)COC(=O)c1cccs1`, the “growth rescue (activation)” value was inactive: 26.5%.
In the case of `Cc1c(-c2ccc(F)cc2)[n+](=O)c2c(n1[O-])CCCCC2`, the “growth rescue (activation)” value is reported as inactive: -4.3%.
With `CC(C)N(Cc1nccn1C)C(=O)c1cc(COc2ccc3ncccc3c2)on1` the “growth rescue (activation)” value was inactive: -3.35%.
In the case of `COc1ccccc1N1CCN(CC(=O)Nc2sccc2C#N)CC1`, the “growth rescue (activation)” value is reported as inactive: -1.07%.
For `NS(=O)(=O)c1ccc(CCNC(=O)COC(=O)/C=C/c2cc(Br)ccc2F)cc1`, the “growth rescue (activation)” value was inactive: -22.9%.
In the case of `CNS(=O)(=O)c1cccc(C(=O)OCC(=O)Nc2ccc(Cl)cc2F)c1`, the “growth rescue (activation)” value is reported as inactive: 38.3%.
In the case of `C=CCc1cccc(C=Nc2cccn3cc(-c4ccccc4)nc23)c1O`, the “growth rescue (activation)” value is reported as inactive: -4.14%.
For `O=C(CSc1nnc(-c2cccnc2)o1)Nc1cccc(Cl)c1`, the “growth rescue (activation)” value was inactive: 22.4%.
With `COc1ccc(C2C(C(=O)NCCCN3CCOCC3)c3ccccc3C(=O)N2c2ccc(OC)cc2)cc1` (configuration not stated) the “growth rescue (activation)” value was inactive: 6.06%.
In the case of `O=CNc1ccc(OC(=O)c2cncc(Br)c2)cc1`, the “growth rescue (activation)” value is reported as inactive: 22.8%.
For `CCN=C1NN=C(c2cc(C)n(Cc3ccco3)c2C)CS1`, the “growth rescue (activation)” value was inactive: 9.26%.
With `COc1ccc(/C=N/Nc2nc(-c3ccc(C)cc3)c(NC(C)=O)s2)cc1` the “growth rescue (activation)” value was inactive: 13%.
In the case of `CCN(CC)S(=O)(=O)c1ccc(C(=O)Nc2ccc(Cc3ccncc3)cc2)cc1`, the “growth rescue (activation)” value is reported as inactive: 5.79%.
With `CCCCC1(C)OC(=O)C(=Cc2ccc(-c3ccc(Cl)c(C(=O)O)c3)o2)C(=O)O1` (configuration not stated) the “growth rescue (activation)” value was inactive: 0.289%.
In the case of `O=C(Cc1ccccc1)Nc1ccc(NC(=O)c2ccco2)cc1Cl`, the “growth rescue (activation)” value is reported as inactive: 14.8%.
For `CSCc1c(C(=O)OCC(=O)c2ccc[nH]2)oc2ccccc12`, the “growth rescue (activation)” value was inactive: -40.7%.
For `COc1cc2c(cc1OC)C(C)N(S(=O)(=O)c1cccs1)CC2` (configuration not stated), the “growth rescue (activation)” value was inactive: 23.2%.

From PubChem BioAssay AID1347073 (National Center for Advancing Translational Sciences (NCATS), 2019)
Potency means the concentration at half of the fitted maximal effect.
